{"source": "the supplement of paper PMC12355420", "conditions_in_all_cases": "50 µM; 24 h", "key": {"[1]": {"system": "HeLa VPS33A reporter cells", "experiment": "relative cell viability (CellMask signal) vs DMSO (fraction of DMSO); higher = less cytotoxic"}, "[2]": {"system": "HeLa VPS33A R498W KI + HA-SDC1-FLAG", "experiment": "relative GAG core protein HA-SDC1 amount per cell number vs DMSO (fraction of DMSO); higher = more SDC1 (GAG core protein)"}, "[3]": {"system": "HeLa VPS33A KO + NLuc-VPS33A R498W", "experiment": "relative mutant VPS33A R498W amount (NanoLuc luminescence) vs DMSO (fraction of DMSO); HeLa model of a glycosaminoglycan (GAG) storage disease; KI is knock-in and KO knock-out; SDC1 is syndecan 1; higher = higher mutant VPS33A level"}}, "note": "Where a name gives a salt, the structure may show the parent alone. This is one part of the list. No stated cut-off is given here; in the data, active = 0.5 or less and inactive = the rest. Single values are uncertain, as repeats are few or missing.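 Wherever relative GAG core protein HA-SDC1 amount per cell number vs DMSO is given: HA-SDC1 level read out by In-Cell Western staining with an anti-HA antibody against the N-terminal tag, screening FDA-approved library drugs.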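 Wherever relative cell viability (CellMask signal) vs DMSO is given: primary screen of an FDA-approved drug library in HeLa reporter cells in 96-well format, CellMask signal normalized to DMSO-treated wells set as 1, under 0.5 deemed highly cytotoxic.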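 Wherever relative mutant VPS33A R498W amount (NanoLuc luminescence) vs DMSO is given: screen of an FDA-approved drug library, NanoLuc luminescence read after lysing the treated cells, taken as a measure of mutant VPS33A protein stability.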", "data": [{"molecule": "NCCCNCCCCNCCCN", "note": "[Spermine tetrahydrochloride]", "values": [{"measurement": "relative cell viability", "setting": "[1]", "value": 1.06}, {"measurement": "relative GAG core protein HA-SDC1 amount per cell number", "setting": "[2]", "value": "inactive: 1.09"}, {"measurement": "relative mutant VPS33A R498W amount", "setting": "[3]", "value": 1.13}]}, {"molecule": "C=C[C@H]1CN2CC[C@H]1C[C@H]2[C@H](O)c1ccnc2ccc(OC)cc12", "note": "[Quinine]", "values": [{"measurement": "relative cell viability", "setting": "[1]", "value": 1.11}, {"measurement": "relative GAG core protein HA-SDC1 amount per cell number", "setting": "[2]", "value": "inactive: 0.651"}, {"measurement": "relative mutant VPS33A R498W amount", "setting": "[3]", "value": 1.22}]}, {"molecule": "CN(C)CCC(c1ccc(Br)cc1)c1ccccn1", "note": "(centres undefined) [Brompheniramine hydrogen maleate]", "values": [{"measurement": "relative cell viability", "setting": "[1]", "value": 1.12}, {"measurement": "relative GAG core protein HA-SDC1 amount per cell number", "setting": "[2]", "value": "inactive: 1.18"}, {"measurement": "relative mutant VPS33A R498W amount", "setting": "[3]", "value": 1.05}]}, {"molecule": "C[C@H](CCC(=O)O)[C@H]1CC[C@H]2[C@@H]3[C@H](O)C[C@@H]4C[C@H](O)CC[C@]4(C)[C@H]3C[C@H](O)[C@]12C", "note": "[Cholic acid]", "values": [{"measurement": "relative cell viability", "setting": "[1]", "value": 1.02}, {"measurement": "relative GAG core protein HA-SDC1 amount per cell number", "setting": "[2]", "value": "inactive: 0.818"}, {"measurement": "relative mutant VPS33A R498W amount", "setting": "[3]", "value": 1.3}]}, {"molecule": "O=c1[nH]c(=O)n(C2CCCO2)cc1F", "note": "(centres undefined)", "values": [{"measurement": "relative cell viability", "setting": "[1]", "value": 1.08}, {"measurement": "relative GAG core protein HA-SDC1 amount per cell number", "setting": "[2]", "value": "inactive: 1.16"}, {"measurement": "relative mutant VPS33A R498W amount", "setting": "[3]", "value": 1.41}]}, {"molecule": "COc1ccc(CNc2nc(N3CCC[C@H]3CO)ncc2C(=O)NCc2ncccn2)cc1Cl", "note": "[Avanafil]", "values": [{"measurement": "relative cell viability", "setting": "[1]", "value": 1.06}, {"measurement": "relative GAG core protein HA-SDC1 amount per cell number", "setting": "[2]", "value": "inactive: 1.37"}, {"measurement": "relative mutant VPS33A R498W amount", "setting": "[3]", "value": 0.948}]}, {"molecule": "Cc1nc2n(c(=O)c1CCN1CCC(c3noc4cc(F)ccc34)CC1)CCCC2", "note": "[Risperidone]", "values": [{"measurement": "relative cell viability", "setting": "[1]", "value": 1.32}, {"measurement": "relative GAG core protein HA-SDC1 amount per cell number", "setting": "[2]", "value": "inactive: 0.78"}, {"measurement": "relative mutant VPS33A R498W amount", "setting": "[3]", "value": 0.524}]}, {"molecule": "O=c1[nH]c(=O)n([C@H]2C[C@H](O)[C@@H](CO)O2)cc1I", "note": "[Idoxuridine]", "values": [{"measurement": "relative cell viability", "setting": "[1]", "value": 0.866}, {"measurement": "relative GAG core protein HA-SDC1 amount per cell number", "setting": "[2]", "value": "inactive: 1.13"}, {"measurement": "relative mutant VPS33A R498W amount", "setting": "[3]", "value": 2.88}]}, {"molecule": "CC(=O)Oc1cc2c(s1)CCN(C(C(=O)C1CC1)c1ccccc1F)C2", "note": "(centres undefined) [Prasugrel hydrochloride]", "values": [{"measurement": "relative cell viability", "setting": "[1]", "value": 0.692}, {"measurement": "relative GAG core protein HA-SDC1 amount per cell number", "setting": "[2]", "value": "active: 0.409"}, {"measurement": "relative mutant VPS33A R498W amount", "setting": "[3]", "value": 0.471}]}, {"molecule": "COc1nc(N)nc2c1ncn2[C@@H]1O[C@H](CO)[C@@H](O)[C@@H]1O", "note": "[Nelarabine]", "values": [{"measurement": "relative cell viability", "setting": "[1]", "value": 1.07}, {"measurement": "relative GAG core protein HA-SDC1 amount per cell number", "setting": "[2]", "value": "inactive: 1.15"}, {"measurement": "relative mutant VPS33A R498W amount", "setting": "[3]", "value": 1.35}]}, {"molecule": "CS(=O)(=O)CCNCc1ccc(-c2ccc3ncnc(Nc4ccc(OCc5cccc(F)c5)c(Cl)c4)c3c2)o1", "note": "[Lapatinib]", "values": [{"measurement": "relative cell viability", "setting": "[1]", "value": 1.23}, {"measurement": "relative GAG core protein HA-SDC1 amount per cell number", "setting": "[2]", "value": "inactive: 1.06"}, {"measurement": "relative mutant VPS33A R498W amount", "setting": "[3]", "value": 0.545}]}, {"molecule": "Cc1ccc(-n2[nH]c(C)c(N=Nc3cccc(-c4cccc(C(=O)O)c4)c3O)c2=O)cc1C", "note": "[Eltrombopag Olamine]", "values": [{"measurement": "relative cell viability", "setting": "[1]", "value": 0.819}, {"measurement": "relative GAG core protein HA-SDC1 amount per cell number", "setting": "[2]", "value": "active: 0.346"}, {"measurement": "relative mutant VPS33A R498W amount", "setting": "[3]", "value": 1.25}]}, {"molecule": "COc1ccccc1N1CCN(CCCNc2cc(=O)n(C)c(=O)n2C)CC1", "note": "[Urapidil HCl]", "values": [{"measurement": "relative cell viability", "setting": "[1]", "value": 1}, {"measurement": "relative GAG core protein HA-SDC1 amount per cell number", "setting": "[2]", "value": "inactive: 1.02"}, {"measurement": "relative mutant VPS33A R498W amount", "setting": "[3]", "value": 1.48}]}, {"molecule": "CCCN(CCC)CCc1cccc2c1CC(=O)N2", "note": "[Ropinirole HCl]", "values": [{"measurement": "relative cell viability", "setting": "[1]", "value": 0.987}, {"measurement": "relative GAG core protein HA-SDC1 amount per cell number", "setting": "[2]", "value": "inactive: 0.806"}, {"measurement": "relative mutant VPS33A R498W amount", "setting": "[3]", "value": 1.06}]}, {"molecule": "Cc1cc(N2CCN([C@@H]3CN[C@H](C(=O)N4CCSC4)C3)CC2)n(-c2ccccc2)n1", "note": "[Teneligliptin hydrobromide]", "values": [{"measurement": "relative cell viability", "setting": "[1]", "value": 1.05}, {"measurement": "relative GAG core protein HA-SDC1 amount per cell number", "setting": "[2]", "value": "inactive: 0.787"}, {"measurement": "relative mutant VPS33A R498W amount", "setting": "[3]", "value": 0.322}]}, {"molecule": "C[N+](C)(C)CC(=O)O", "note": "[Betaine hydrochloride]", "values": [{"measurement": "relative cell viability", "setting": "[1]", "value": 1.08}, {"measurement": "relative GAG core protein HA-SDC1 amount per cell number", "setting": "[2]", "value": "inactive: 1.16"}, {"measurement": "relative mutant VPS33A R498W amount", "setting": "[3]", "value": 1.11}]}, {"molecule": "COc1ccc(NC(=O)c2ccc(C(=N)N(C)C)cc2)c(C(=O)Nc2ccc(Cl)cn2)c1", "note": "[Betrixaban]", "values": [{"measurement": "relative cell viability", "setting": "[1]", "value": 1.01}, {"measurement": "relative GAG core protein HA-SDC1 amount per cell number", "setting": "[2]", "value": "inactive: 0.773"}, {"measurement": "relative mutant VPS33A R498W amount", "setting": "[3]", "value": 1.33}]}, {"molecule": "CC1=NN(c2ccccc2)C(=O)C1", "note": "[Edaravone]", "values": [{"measurement": "relative cell viability", "setting": "[1]", "value": 0.925}, {"measurement": "relative GAG core protein HA-SDC1 amount per cell number", "setting": "[2]", "value": "inactive: 1.32"}, {"measurement": "relative mutant VPS33A R498W amount", "setting": "[3]", "value": 1.69}]}, {"molecule": "O=c1c(O)c(-c2ccc(O)cc2)oc2cc(O)cc(O)c12", "note": "[Kaempferol]", "values": [{"measurement": "relative cell viability", "setting": "[1]", "value": 0.935}, {"measurement": "relative GAG core protein HA-SDC1 amount per cell number", "setting": "[2]", "value": "inactive: 0.652"}, {"measurement": "relative mutant VPS33A R498W amount", "setting": "[3]", "value": 0.184}]}, {"molecule": "CN1CCN2c3ncccc3Cc3ccccc3C2C1", "note": "(centres undefined) [Mirtazapine]", "values": [{"measurement": "relative cell viability", "setting": "[1]", "value": 0.978}, {"measurement": "relative GAG core protein HA-SDC1 amount per cell number", "setting": "[2]", "value": "inactive: 0.872"}, {"measurement": "relative mutant VPS33A R498W amount", "setting": "[3]", "value": 1.24}]}, {"molecule": "Cc1ccccc1N1C(=O)c2cc(S(N)(=O)=O)c(Cl)cc2NC1C", "note": "(centres undefined) [Metolazone]", "values": [{"measurement": "relative cell viability", "setting": "[1]", "value": 0.939}, {"measurement": "relative GAG core protein HA-SDC1 amount per cell number", "setting": "[2]", "value": "inactive: 0.924"}, {"measurement": "relative mutant VPS33A R498W amount", "setting": "[3]", "value": 0.97}]}, {"molecule": "C=CCc1ccc(O)c(OC)c1", "note": "[Eugenol]", "values": [{"measurement": "relative cell viability", "setting": "[1]", "value": 1.04}, {"measurement": "relative GAG core protein HA-SDC1 amount per cell number", "setting": "[2]", "value": "inactive: 0.923"}, {"measurement": "relative mutant VPS33A R498W amount", "setting": "[3]", "value": 1.11}]}, {"molecule": "COC(=O)[C@H](Cc1ccccc1)NC(=O)[C@@H](N)CC(=O)O", "note": "[Aspartame]", "values": [{"measurement": "relative cell viability", "setting": "[1]", "value": 1.15}, {"measurement": "relative GAG core protein HA-SDC1 amount per cell number", "setting": "[2]", "value": "inactive: 0.728"}, {"measurement": "relative mutant VPS33A R498W amount", "setting": "[3]", "value": 1.26}]}, {"molecule": "Nc1nc(NC2CC2)c2ncn([C@H]3C=C[C@@H](CO)C3)c2n1", "note": "[Abacavir sulfate]", "values": [{"measurement": "relative cell viability", "setting": "[1]", "value": 1.11}, {"measurement": "relative GAG core protein HA-SDC1 amount per cell number", "setting": "[2]", "value": "inactive: 0.882"}, {"measurement": "relative mutant VPS33A R498W amount", "setting": "[3]", "value": 0.616}]}, {"molecule": "Nc1nc(NC2CC2)c2ncn([C@H]3C=C[C@@H](CO)C3)c2n1", "note": "[Abacavir]", "values": [{"measurement": "relative cell viability", "setting": "[1]", "value": 1.12}, {"measurement": "relative GAG core protein HA-SDC1 amount per cell number", "setting": "[2]", "value": "inactive: 0.752"}, {"measurement": "relative mutant VPS33A R498W amount", "setting": "[3]", "value": 0.832}]}, {"molecule": "O=C([O-])[O-].[Li+].[Li+]", "note": "[Lithium carbonate]", "values": [{"measurement": "relative cell viability", "setting": "[1]", "value": 1.02}, {"measurement": "relative GAG core protein HA-SDC1 amount per cell number", "setting": "[2]", "value": "inactive: 1.04"}, {"measurement": "relative mutant VPS33A R498W amount", "setting": "[3]", "value": 1.04}]}, {"molecule": "C1N2CN3CN1CN(C2)C3", "note": "[Methenamine]", "values": [{"measurement": "relative cell viability", "setting": "[1]", "value": 0.993}, {"measurement": "relative GAG core protein HA-SDC1 amount per cell number", "setting": "[2]", "value": "inactive: 0.901"}, {"measurement": "relative mutant VPS33A R498W amount", "setting": "[3]", "value": 1.17}]}, {"molecule": "CN(C(=O)c1ccc(F)cc1C(F)(F)F)C1CCN(c2nnc(-c3ccnn3C)c3ccccc23)CC1", "values": [{"measurement": "relative cell viability", "setting": "[1]", "value": 1.3}, {"measurement": "relative GAG core protein HA-SDC1 amount per cell number", "setting": "[2]", "value": "inactive: 0.54"}, {"measurement": "relative mutant VPS33A R498W amount", "setting": "[3]", "value": 0.4}]}]}
